In all, about 310,000 compounds went through this assay and about 14,000 (4.5%) showed an effect of 50% or more. Effects have a minus sign here. The list shows a part of the results.

From article PMC4336329 (PLoS ONE, 2015) come the findings set out here.
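Also: peak tail current of the secondary pulse compared with the same well before compound.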

The assay deals with human ether-à-go-go-related gene (hERG) potassium channel (human, UniProt Q12809). The experiment in a line: primary screen, population patch clamp on CHO cells stably expressing hERG.
Sequence of human ether-à-go-go-related gene (hERG) potassium channel (Q12809 whole entry, looked up): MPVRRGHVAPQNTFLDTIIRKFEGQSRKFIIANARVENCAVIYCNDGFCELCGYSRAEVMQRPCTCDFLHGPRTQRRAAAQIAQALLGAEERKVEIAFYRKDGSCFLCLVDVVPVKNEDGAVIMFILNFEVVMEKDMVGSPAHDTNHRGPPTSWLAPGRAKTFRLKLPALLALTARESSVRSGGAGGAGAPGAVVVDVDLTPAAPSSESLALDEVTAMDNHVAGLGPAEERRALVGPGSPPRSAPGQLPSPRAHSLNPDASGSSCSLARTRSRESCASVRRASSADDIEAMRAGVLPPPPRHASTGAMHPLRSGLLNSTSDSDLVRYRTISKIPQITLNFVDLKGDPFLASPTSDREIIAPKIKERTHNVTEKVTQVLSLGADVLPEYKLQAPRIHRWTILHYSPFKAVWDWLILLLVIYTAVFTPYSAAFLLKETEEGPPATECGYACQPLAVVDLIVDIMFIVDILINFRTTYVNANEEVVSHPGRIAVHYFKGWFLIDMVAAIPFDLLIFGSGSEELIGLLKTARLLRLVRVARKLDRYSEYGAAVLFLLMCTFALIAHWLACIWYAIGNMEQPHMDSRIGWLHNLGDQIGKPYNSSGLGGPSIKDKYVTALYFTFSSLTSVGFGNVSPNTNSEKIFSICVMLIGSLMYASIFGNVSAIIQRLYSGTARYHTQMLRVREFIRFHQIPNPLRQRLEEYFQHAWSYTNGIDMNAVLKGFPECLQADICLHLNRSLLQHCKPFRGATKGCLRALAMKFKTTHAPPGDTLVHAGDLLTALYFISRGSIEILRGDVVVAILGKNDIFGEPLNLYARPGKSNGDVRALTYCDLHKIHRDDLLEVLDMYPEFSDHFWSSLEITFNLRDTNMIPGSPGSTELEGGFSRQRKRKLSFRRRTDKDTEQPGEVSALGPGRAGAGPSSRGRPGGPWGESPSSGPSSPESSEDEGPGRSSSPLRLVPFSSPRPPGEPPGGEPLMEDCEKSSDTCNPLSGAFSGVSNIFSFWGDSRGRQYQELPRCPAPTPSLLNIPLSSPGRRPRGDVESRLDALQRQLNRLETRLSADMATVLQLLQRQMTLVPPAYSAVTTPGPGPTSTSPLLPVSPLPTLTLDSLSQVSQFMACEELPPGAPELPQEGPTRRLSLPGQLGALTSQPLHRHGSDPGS
As to `CCOc1ccc(CN(C)C(=O)CNC(=O)c2sc3ccccc3c2Cl)cc1`, the “hERG current change (%, negative = inhibition) at 10uM” value came out at 14%.
The same measure for `NC(=O)c1cc(-c2ccccc2)nc(Oc2ccccc2)n1`: -1.98%; for `O=C(CN1C(=O)NC2(CCOc3ccccc32)C1=O)c1ccc(Cl)cc1` (stereo not shown): -43.5%.
`CSc1cccc(NC(=S)N2CCC(N(C)C3CCCCCC3)CC2)c1`: the “hERG current change (%, negative = inhibition) at 10uM” value was -62.9%.
For `COc1cc(C(=O)NCC(=O)N/N=C(/C)c2ccc3c(c2)CCCC3)cc(OC)c1OC`, the “hERG current change (%, negative = inhibition) at 10uM” value worked out at 7.09%.
Then `COc1ccc(CC(=O)NC(C)(C)CC(C)=O)cc1OC`, with -2.76%.
Turning to `Fc1cc(F)c2nc(Nc3nc4cc5c(cc4s3)OCO5)sc2c1`, the “hERG current change (%, negative = inhibition) at 10uM” value was 15.2%.
Then `Cc1c(Cl)cccc1NS(=O)(=O)c1cccc2nsnc12`, with -4.17%; and `Oc1ccc(/C=C/c2ccc3cccc(O)c3n2)cc1Br`, with 11.2%; and `CC1(C)CC2CC(C)(CN2C(=O)c2cc(-c3ccc(O)cc3)on2)C1` (stereo not shown), with -15.4%.
The same measure for `CC(C)c1nc2oc3c(N(C)CCO)ncnc3c2c2c1CCC2`: -28.1%; for `CCn1c(CNC(=O)c2cccc(C)c2)nnc1SCC(=O)NC1CCCC1`: -11.8%; for `CCN(CC(=O)Nc1ccccc1C(F)(F)F)C(=O)C1CCN(C(=O)Nc2ccccc2)CC1`: -0.222%.
On to `Clc1cccc(NCc2nnc(SCc3ccccc3Cl)o2)c1`, for which the “hERG current change (%, negative = inhibition) at 10uM” value is 6.21%.
On to `O=C(c1cc2ccccc2o1)N1CCN(S(=O)(=O)c2ccc(F)c(F)c2F)CC1`, for which the “hERG current change (%, negative = inhibition) at 10uM” value is given as -6.88%.
`c1ccc2c(N3CCCC3)nc(-c3ccncc3)nc2c1`: the “hERG current change (%, negative = inhibition) at 10uM” value is -56.9%.
Then `CC1(C)Cc2c(c(N3CCOCC3)nc3sc4c(NCCN5CCOCC5)nnnc4c23)CS1`, with -48%.
The same measure for `CC(C)C(=O)Nc1ccc(C(=O)NCc2cccnc2)cc1`: -0.537%.
As for `CCOc1ccc(NC(=O)COC(=O)C2(C)CC2(Cl)Cl)c([N+](=O)[O-])c1` (stereo not shown), the “hERG current change (%, negative = inhibition) at 10uM” value was -16.4%.
The same measure for `O=C(N/N=C/c1ccc(O)cc1)c1ccc(NC(=O)c2ccccc2Br)cc1`: -4.47%; for `Cc1ccc(SCC(=O)Nc2nccs2)cc1`: 5.21%; for `CNc1nc(C)cc(C)c1S(=O)(=O)c1ccc(C)cc1`: 4.23%.
The same measure for `Cc1cc(C)nc(N2CCC(C(=O)NCCc3ccc(Cl)cc3)CC2)n1`: 21.6%.
Then `CC1=NNC(=O)C1CCC(=O)N/N=C/c1ccc(C)cc1` (stereo not shown), with 4.3%; and `COC(=O)N1N=C(c2ccccc2)CC1(O)C(F)(F)F` (stereo not shown), with 8.7%; and `O=C(CN1C(=O)NC(Cc2c[nH]c3ccccc23)C1=O)Nc1ccccc1Br` (stereo not shown), with -15.4%.
Take `O=C(O)c1cc(S(=O)(=O)N(Cc2ccccc2)c2ccccc2)ccc1Cl`: the “hERG current change (%, negative = inhibition) at 10uM” value is 13.9%.
Then `CCOc1cc(NC(=S)NCCOC)c(OCC)cc1NC(=O)c1cccs1`, with 14.2%.
The same measure for `CCOC(=O)c1c(O)c2ccccc2n(-c2ccccc2)c1=O`: 12.1%.
Regarding `COc1ccc(CCNC(=O)CN(C2CCCCC2)S(C)(=O)=O)cc1OC`, the “hERG current change (%, negative = inhibition) at 10uM” value is on record as -1.75%.
The same measure for `COc1ccc(OCc2cc(C(=O)N3CCCC(OC)C3)no2)c2ccccc12` (stereo not shown): 1.42%; for `COc1ccc(S(=O)(=O)N2CCC(N3CCCCC3)CC2)cc1`: -11.7%.
Then `C[N+]1(C)[C@@H]2CC(OC(=O)[C@H](CO)c3ccccc3)C[C@H]1[C@@H]1O[C@@H]12.[Br-]` (stereo partly shown), with 15.8%.
Then `O=C(O)c1ccc(NC2OC[C@@H](O)[C@H](O)[C@H]2O)cc1` (stereo partly shown), with 0.116%.
On to `S=C(NCC1CCCO1)Nc1cccc2ccccc12` (stereo not shown), for which the “hERG current change (%, negative = inhibition) at 10uM” value turned out to be 31.5%.
Then `COC(=O)c1ccc(OCCCCN(C)Cc2ccccc2)cc1.O=C(O)C(=O)O`, with -46.5%; and `c1ccc(C2=Nn3c(nnc3-c3cc(-c4ccccc4)n[nH]3)SC2)cc1`, with 6.46%; and `COc1cc(OC)c(NC(=O)N2CCOCC2)cc1Cl`, with 6.39%.
In the case of `COC(=O)C(C)Sc1nc2c(cnn2-c2ccc(Cl)cc2)c(=O)[nH]1` (stereo not shown), the “hERG current change (%, negative = inhibition) at 10uM” value stood at 8.69%.
Then `NC(=O)C1CCN(C(=O)c2ccc(Oc3ccccc3)cc2)CC1`, with 0.308%.
As to `CN(CCOc1cccc2ccccc12)Cc1ccccc1.O=C(O)C(=O)O`, the “hERG current change (%, negative = inhibition) at 10uM” value is listed as 0.659%.
The same measure for `Cc1nc2ccc(NC(=O)c3cccc(S(=O)(=O)N4CC(C)OC(C)C4)c3)cc2s1` (stereo not shown): -7.16%; for `COC(=O)c1ccccc1NC(=O)N1CSC[C@H]1C(=O)OC`: 15.8%.
The same measure for `Cc1cc(C(=O)COC(=O)Cc2n[nH]c(=O)c3ccccc23)c(C)n1-c1ccc2c(c1)OCCO2`: 1.29%.
The same measure for `CCOc1ccc(NC(=O)CCNC(=O)C2CCN(S(=O)(=O)c3ccccc3)CC2)cc1`: 0.172%; for `Cn1c(=O)c(-c2ccccc2N)nc2ccccc21`: 5.5%; for `Cc1ccc(N(Cc2cc3ccccc3[nH]c2=O)C(=O)c2cccs2)cc1C`: 9.8%.
Regarding `CC(=O)OCC1OC(n2ncc(=O)n(Cc3ccccc3)c2=O)C(OC(C)=O)C1OC(C)=O` (stereo not shown), the “hERG current change (%, negative = inhibition) at 10uM” value is given as -1.56%.
The same measure for `C=CC(n1cncn1)C(O)(c1ccccc1)c1ccccc1` (stereo not shown): 13.3%.
Then `O=C(O)/C=C/C(=O)NCC1CCC(CNC(=O)/C=C/C(=O)O)CC1` (stereo not shown), with 7.79%; and `O=C(NC1(C(F)(F)F)NC(=O)N(Cc2cccnc2)C1=O)c1ccc(F)cc1` (stereo not shown), with -4.56%.
Then `CN(Cc1ccon1)C(=O)CC1C(=O)NCCN1CC(C)(C)C` (stereo not shown), with 10.2%; and `CC(C)(C)NC(=O)COC(=O)c1ccc(NC(=O)CC#N)cc1`, with 18.8%.
Regarding `CCC(CC)C(=O)c1c[nH]c(C(=O)OC)c1`, the “hERG current change (%, negative = inhibition) at 10uM” value stood at 10.7%.
Regarding `COc1ccc(C2C3C(C)=NN=C3CC(C)(O)C2C(C)=O)cc1` (stereo not shown), the “hERG current change (%, negative = inhibition) at 10uM” value was 8.37%.
Then `O=C1c2ccccc2C(=O)N1CCCc1nc(-c2ccccc2)no1`, with 1.83%; and `CC(=O)Nc1cccc(CNCc2cccc(NC(C)=O)c2)c1`, with -2.82%; and `CC(C)(C)OC(=O)NCc1nc(N)n[nH]1`, with 15.6%.
Then `Cc1nc(Cl)c(C(=O)NC(=O)Nc2cccc(C(F)(F)F)c2)c(C)c1[N+](=O)[O-]`, with 1.12%.
Then `COc1ccc(S(=O)(=O)CCC(=O)N2CCN(c3ccc(F)cc3)CC2)cc1`, with -59.7%.
In the case of `CCOc1ccccc1NC(=O)Cn1c(=O)c2ccccc2n(CC)c1=O`, the “hERG current change (%, negative = inhibition) at 10uM” value is on record as -11.7%.
With `CCn1c(SC(C)C(=O)NC2CCCc3ccccc32)nnc1-c1cccs1` (stereo not shown), the “hERG current change (%, negative = inhibition) at 10uM” value was -34.5%.
For the compound `COc1ccccc1CNC(=O)c1ccccc1NS(C)(=O)=O`, the “hERG current change (%, negative = inhibition) at 10uM” value is recorded as -10.1%.
In the case of `COc1ccc(CN2CCN(S(=O)(=O)c3ccc(F)cc3)CC2)cc1OC.O=C(O)C(=O)O`, the “hERG current change (%, negative = inhibition) at 10uM” value is 7.33%.
Then `CC(C)C1C(C#N)=C(N)Oc2n[nH]c(-c3ccccc3)c21` (stereo not shown), with 4.31%.
The same measure for `CNC(=O)c1nc(C)n(-c2ccc([N+](=O)[O-])cc2)n1`: -3.99%; for `CCCC1NC(=O)NC(C)=C1C(=O)OCC` (stereo not shown): 3.58%.
The same measure for `COc1ccc(CCNC(=O)CCC(=O)N2CCOc3ccc(Cl)cc32)cc1OC`: -20.2%.
As to `COc1ccc(OC)c(S(=O)(=O)ON2C(=O)c3ccccc3C2=O)c1`, the “hERG current change (%, negative = inhibition) at 10uM” value came to 6.82%.
Regarding `CC(C)CCN1C(=O)c2ccc(-c3nc4ccccc4c(=O)o3)cc2C1=O`, the “hERG current change (%, negative = inhibition) at 10uM” value was found to be 2.87%.
Consider `O=C(NCC(c1ccc(F)cc1)N1CCOCC1)c1cccc(Br)c1` (stereo not shown), for which the “hERG current change (%, negative = inhibition) at 10uM” value turned out to be 3.1%.
The same measure for `CC(=O)Oc1ccc(N2C(=O)C3C4C=CC(C5CC45)C3C2=O)cc1[N+](=O)[O-]` (stereo not shown): -2.81%; for `O=C(CN1C(=O)NC2(CCCCC2)C1=O)N1CCc2ccccc2C1`: 4.28%; for `O=S(=O)(c1ccc(Cl)s1)N1CCC2(CC1)OCCO2`: -0.289%.
Regarding `Cc1cc(NC(=O)CSc2nc3ccsc3c(=O)n2CCCCC(=O)O)no1`, the “hERG current change (%, negative = inhibition) at 10uM” value is listed as -18%.
The same measure for `CCCCc1cc(=O)oc2cc(OCC(=O)NCCN3CCOCC3)ccc12`: -23.1%; for `CS(=O)(=O)c1ccc(Cl)c(NC(=O)Cc2c(Cl)cccc2Cl)c1`: 6.61%.
On to `CCOC(=O)c1cc(Sc2ccccc2N)cc(C(=O)OCC)n1`, for which the “hERG current change (%, negative = inhibition) at 10uM” value is 6.85%.
With `COc1ccc(-c2cc(=O)[nH][nH]2)cc1OC`, the “hERG current change (%, negative = inhibition) at 10uM” value is on record as -2.84%.
Then `O=C(CSC1c2ccccc2-c2ccccc21)N/N=C/c1ccccc1`, with 21.8%; and `COc1ccc(Cc2nnc(SCC(=O)c3c(N)n(C4CC4)c(=O)[nH]c3=O)o2)cc1`, with 10.9%; and `O=C(CC(C(=O)O)c1ccc(Cl)cc1)c1ccccc1` (stereo not shown), with 10.1%.
`O=C(CC(c1ccccc1)c1cc(Cl)ccc1O)N1CCCC1` (stereo not shown): the “hERG current change (%, negative = inhibition) at 10uM” value is on record as -17.5%.
Then `COc1ccc(NC(=O)CN(C)C(=O)c2cccc(NS(=O)(=O)c3ccc(Br)cc3)c2)cc1`, with -16.1%.
Then `O=c1c2ccccc2cnn1-c1ccc(Br)cc1`, with -2.06%; and `CCCc1nc2oc3c(NCCOCCO)ncnc3c2c2c1COC(C)(C)C2`, with -2.6%; and `Cc1ccc(NC(=O)CCc2nnc3ccc(N4CCOCC4)nn23)cc1C`, with -21.7%.
Then `COc1cccc(-c2cn3nc(C)c(C)nc3n2)c1`, with 4.91%.
